System: Immature rats
Assay: In vivo uterotropic activity

| Compound | uterine weight (0.5 µg, positive control) [mg] | uterine weight (100 µg for three days S.C.) [mg] |
| --- | --- | --- |
| C#C[C@]1(O)CC[C@H]2[C@@H]3CCc4cc(O)ccc4[C@H]3CC[C@@]21C [ethinyl estradiol] | 92.68 ± 7.6 |  |
| C[C@]12CCc3c(ccc4c3CC[C@H](O)C4)[C@@H]1CCC2=O (stereo in doubt) |  | 54.63 ± 5.2 |

— patent EP0980382B1, “ESTROGENIC 19-NORANDROST-17-ONE DERIVATIVES WITH AN AROMATIC B-RING” (Wyeth, priority 1997, dated 1998)
